The record followed here is the RNAGym collection of RNA variant scans (doi:10.1073/pnas.2313332121).

Variants at the background level are over-represented here.

Sequences and labels used below:
B1: TPR 5TU (parent)
chain: GGAUCUUCUCGAUCUAACAAAAAAGACAAAUCUGCCACAAAGCUUGAGAGCAUCUUCGGAUGCAGAGGCGGCAGCCUUCGGUGGCGCGAUAGCGCCAACGUUCUCAACUAUGACACGCAAAACGCGUGCUCCGUUGAAUGGAGUUUAUCAUG

Variants of B1 are the subject of the series. Kind of series: polymerase ribozyme fitness, log enrichment relative to wild type (log ratio); higher = more active; in vitro selection for triplet polymerase activity. Summed up:
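Mutant libraries were PCR-built and transcribed for each subunit of a heterodimeric triplet polymerase ribozyme and selected for one round in triplicate at −7 °C, frozen, before gel excision of extended constructs and streptavidin-bead capture. Input and output libraries were Illumina-sequenced, keeping genotypes with ≥10 input reads and ≥1 read per output. Fitness is a logarithmic ratio of genotype to wild-type enrichment, in base 2, using inverse-variance-weighted replicate averages.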
As for GGAUCUUCUCGAUCUAACAAAAUAGACAAAUCUGCCACAAAGCUUGAGAGCGUCUUCGGAUGCAGAGGCGGCAGCCUUCGGUGGCGAGAUAGCGCCAACGUUCUCAACUAGGAAACGCAAAACGCGUGCUCCGUUGAAUGGAGUUUAUCAUG [A23U A52G C87A U111G C114A], the “polymerase ribozyme fitness (log ratio)” value was ≤ -4.2. With GGAUCUUCUCGAUCUAACAAAAUAGAGAAAUCUGCCACAAAGCUUGAGAGCAGCCUCGGAUGCAGAGGCGGCAGCCUUCGGUGGCGCGAUAGCGCCAACGUUCUCAACUAUGACACGCAGAACGCGUGCUCCGUUGAAUGGAGUUUAUCAUG [A23U C27G U53G U55C A120G], the “polymerase ribozyme fitness (log ratio)” value was ≤ -4.2. Consider GGAUCUUCUCGAUCUAACAAAAUAGAGAAAUCUGCCACAAAGCUUUAGAGCAUCUAGGGAUGCAGAUGCGGCAACCUGCGGUGGCGCCAUAGCGGCAACGGUCUCAACUAUGACACGCAAAACGCGUGCUCCGUUUAAUGGAGUUUAGCAUG [A23U C27G G46U U56A C57G G67U G74A U78G G88C C95G U101G G136U U148G], for which the “polymerase ribozyme fitness (log ratio)” value was ≤ -4.2. Consider GGAUCUUCUCGAUCUAACAAAAUAGACAAAUCUGCCACAAAGCUUGAGAGCAUCUUCGGAUGCAGAGGCGGCAGCCUUCGGUGGCGCGAUAGCGCCAACGUUCUCAACUAUGACACGCGUAACGCGUGCUCCGUUGAAUGGAGUUUAUCAUA [A23U A119G A120U G152A], for which the “polymerase ribozyme fitness (log ratio)” value is ≤ -4.2. For GGAUCUUCUCGAUCUAACAAAAUAGACAAAUCUGCCACAAAGGUUGAGAGCAUCUUGGGAUGCAGAGGCGGCAGCCUUCGGUGGCGCGAUAGCGUCAACGUGCUCAACUAUGACACGCAAAACGCGUGCUCCGUUGAAUGGAGUUAAUCGUG [A23U C43G C57G C95U U102G U146A A150G], the “polymerase ribozyme fitness (log ratio)” value is ≤ -4.2. On to GGAUCUUCUCGAUCUAACAAAAUAGACAAAUCUGUCACAAAGCUUGAGAGCAUAUUCGGAUGCAGAGGCGGCAGCCUUCGGUGGCGCGAUAGCGCCAACGUUCUCAACUAUGACACGCAAGACGCAUGCUCCGUUGAAUGGAGUUUAUCAUG [A23U C35U C54A A121G G126A], for which the “polymerase ribozyme fitness (log ratio)” value is ≤ -4.2. As for GGAUCUUCUCGAUCUAACAAAAUAGAUAAAUCUGCCACAUAGCUUGAGAGCAUCUUCGGAUGCAGAGGCGGCAGCCUUCGGUGGCGCGAUCGCGCCAACGUUCUCAACUAUGACACGCAAAACGCGUGCUCCGUUGAAUGGAGUUUAUCAUG [A23U C27U A40U A91C], the “polymerase ribozyme fitness (log ratio)” value was ≤ -4.2. Regarding GGAUCUUCUCGAUCUAACAAAAUAGACAAAUCUGCCACAAAGCUUGAGAGCAUCUUCGGAUGCAGAGGCGGCUGCCUUCGGUGGCGCGAUAGCGCCAACGUUCUAAACUAUGACACGCAAAACGCGUGCUCCGUUGAAUGGAGUUUAUCAUG [A23U A73U C105A], the “polymerase ribozyme fitness (log ratio)” value is ≤ -4.2. To GGAUCUUCUCGAUCUAACAAAAUAGACAAAUCUGACACAAAGCUUGAGAGCAUCUUCUGAUGCAGAGGCGGCAGCCUUCUGUGGCGCGAUAGCCCCAAGGUUCUCAACUAUGACACGCAAAACGCGUGCUCCGUUGAAUGGAGUUUAUCAGG [A23U C35A G58U G80U G94C C99G U151G] belongs ≤ -4.2; to GGAUCUUCUCGAUCUAACAAAAUAGACAAAUCUGCCACAAAGCUUGAGAGCAUCUUCGGAUGCAGUGGCGGCAGCCUUCGGUGGCGCGAUAGCGCCAACGUUCUCAACUUUGACACGCAAAACGCGUGCUCCGUUGAAUGGAGUGUAUCAUG [A23U A66U A110U U145G], ≤ -4.2; to GGAUCUUCUCGAUCUAACAAAAUAGACAAAUCUGCCACAAAGCUUGAGAGCAUCUUCGGGUGCAGAGGCGGCAGCCUUCGGUGGCGAGAUAACGCCAACGUUCGCUACUAUGACACGCAAAACGAGUGCUCCGUUGAAUGGAGUUUAUCAUG [A23U A60G C87A G92A U104G A106U C125A], ≤ -4.2. With GGAUCUUCUCGAUCUAACAAAAUAGACAAAUCUGCCACAAAGCUUGAGAGCCUCAUCGGAUGCAGAGGCGGCAGCCUUCGUUGACGCGAUAGCGCCAAAGUUCUCAACUAUGACACGCAAAACGCGUGCUCCGUUGAAUGGAGUUUAUCAUG [A23U A52C U55A G81U G84A C99A], the “polymerase ribozyme fitness (log ratio)” value was ≤ -4.2. To GGAUCUUCUCGAUCUAACAAAAUAGACAAAUCUGCCACAAAGCUUGAGAGUAUCUUCGGAUGCAGAGGCGGCAGCCGUCGGUGGCGCGAUAGCGCCAACGUUCUCAACUAUGACACGCAAAACGCGUGCUCCGUUUAAUGGAGUUUAUCAUG [A23U C51U U77G G136U] belongs ≤ -4.2. Take GGAUCUUCUCGAUCUAACAAAAUAGACAAAUCUGCCACAAAGAUUGAGAGCAUCUUCGGAUGCAGAGGGGGCAGCCUUCGGUGGCGCGAUAGCGCCAAGGUUCUCAACUAUGACACGCAAAACGCGUGCUCCGUUGAAAGGAGAUUAUCAUG [A23U C43A C69G C99G U139A U144A]: the “polymerase ribozyme fitness (log ratio)” value is ≤ -4.2.

GGAUCUUCUCGAUCUAACAAAAUAGACAAAUCUGCCAAAAAGCUUGAGAGCAUCUUCGGAUGCAGAGGCGGCAGCCUUCGGUGGCGCGAUAGCGCCAACGUUCUCAACUAUGACACGCAAAACGCGUGCUCCGUUGAAUGGAGUUUAUCAUG [A23U C38A]: the “polymerase ribozyme fitness (log ratio)” value is ≤ -4.2. Turning to GGAUCUUCUCGAUCUAACAAAAUAGACAAAUCUGCCAUAAAGCUUGAGAGCAUCUUCGGAUGCAGAGGCGGCCGCCUUCGGUGGCGCGAUAGAGCCAACGUUCUCAACUAUGACACGCAAAACGCGUUCUCCGUUGAAUGGAGUUUAUCAUG [A23U C38U A73C C93A G128U], the “polymerase ribozyme fitness (log ratio)” value was ≤ -4.2. As to GGAUCUUCUCGAUCUAACAAAAUAGACAAAUCUGCCACAAAGCUUGAGAGCAUCUUAGGAUGCAGAGGCGGCAGCCUUCGGUGGCGCGAUAGCGCCAAGGUUCUCAACUAUGACUCGCAAAAAGCGUGCUCAGUUGAAUGGAGUUUAUCAUG [A23U C57A C99G A115U C123A C132A], the “polymerase ribozyme fitness (log ratio)” value is ≤ -4.2.

On to GGAUCUUCUCGAUCUAACAAAAUAGACAAAUCUGCCAUCAAGCUUGAGAGCAUCUUUGGAUGCAGAGACGGCAGCCUUCGGUGGCGCGAUAGCGCCAACGUUCUCAACUAUGACACGCAACACGCGUGCUCCGUUGAAUGGAGUUUAUCAUG [A23U C38U A39C C57U G68A A121C], for which the “polymerase ribozyme fitness (log ratio)” value was ≤ -4.2. GGAUCUUCUCGAUCUAACAAAAUAGACAAAUCUGCCAUAAAGCUUGAGAGCAGCUACGGUUGCAGAGGCGGCAGCCUUCGGUGGCGCGAUACCGCCAACGUUCUCAACUAUGCCACGCAAAACGCGUGCUCAGUUGAAUGGAGUUUAUCAUG [A23U C38U U53G U56A A60U G92C A113C C132A]: the “polymerase ribozyme fitness (log ratio)” value is ≤ -4.2.
